# Data from ChEMBL document CHEMBL1201862, “PubChem BioAssay data set” (2004).
#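 Values below derive from 48-hour exposures of cells grown in 96-well plates, with endpoints linearly interpolated between the two concentrations bracketing the appropriate inhibition level. Abbreviation: GI50, concentration required for 50% inhibition of growth.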 Calls of active or inactive are those of the source. No stated cut-off is given here; in the data, active = GI50 up to about 1.1 µM and inactive = higher. Numbered stars: 1 amine (or outer) side, 2 acyl side, 3 side chain; on linkers, the order of the positions; unused ones are H or OH. Bridge positions count the residues as written; N and C are the ends. Square brackets hold non-standard residues; d marks the D form. Peptide text beside a SMILES is read from it. I, II: the chains in the order shown. Actinocin(9to1) = Cc1c2oc3c(C)ccc(C(=O)[*:1])c3nc-2c(C(=O)[*:2])c(N)c1=O; X44 = O=C1CC(C(=O)[*:2])N([*:1])C1; NMeV = CN[CH](C(=O)O)C(C)C; Sar = CNCC(=O)O
# Tested on: NCI-H322M
# Assay: growth of human tumour cells (NCI), 48 h
row,Structure (SMILES),GI50
1,"Cc1c2oc3c(C)ccc(C(=O)NC4C(=O)NC(C(C)C)C(=O)N5CC(=O)CC5C(=O)N(C)CC(=O)N(C)C(C(C)C)C(=O)OC4C)c3nc-2c(C(=O)NC2C(=O)NC(C(C)C)C(=O)N3CC(=O)CC3C(=O)N(C)CC(=O)N(C)C(C(C)C)C(=O)OC2C)c(N)c1=O (stereo not drawn) (I: TV[X44][Sar][NMeV] / II: TV[X44][Sar][NMeV]; ester I:1-I:C, II:1-II:C; linker I:N-II:N via Actinocin(9to1); configuration not given here)",active: > 1 µM
2,COC(=O)C1CC(=O)O[C@H]1c1ccc(OC)c(OC)c1 (stereo partly drawn),inactive: > 100 µM
3,NS(=O)(=O)c1nnc(NC(=O)c2cccc([N+](=O)[O-])c2)s1,inactive: > 100 µM
4,COc1ccc2[nH]c3c4c(cc(-c5ccccc5)c3c2c1)C(=O)N(c1ccccc1)C4=O,inactive: > 58.3 µM
5,O=Cc1cc(O)ccc1Br,inactive: 38.6 µM
6,Cc1nc2ccccc2c(=O)n1/N=C/c1ccc(N(C)C)cc1,inactive: > 100 µM
7,C[Si](C)(C)C#Cc1cc(-c2nc3ccccc3s2)ccc1N,inactive: 14.4 µM
8,COc1ccc(/C(=C\c2cc(OC)c(OC)c(OC)c2)C(=O)O)cc1,inactive: 42.4 µM
9,Cc1ccccc1NC(=O)Cc1nc2ccccc2s1,inactive: 18.8 µM
10,CC(O)c1cc2c(s1)C(=O)c1sccc1C2=O (stereo not drawn),active: 0.197 µM
11,Cc1c(-c2ccccc2)[nH]c2ccc(Cl)cc2c1=O,inactive: 81.7 µM
12,CCOC(=O)c1ccc(C)c(/N=N/N(C)C)c1,inactive: > 100 µM
13,C[C@@H](C(=O)O)c1ccc(-c2ccccc2)c(F)c1 [TARENFLURBIL],inactive: > 100 µM
14,COc1cc2c(cc1O)CC1c3c(cc(O)c(OC)c3-2)CCN1C (stereo not drawn),inactive: > 100 µM
15,O=NN(CCCl)C(=O)N[C@H]1CC[C@@H](O)CC1,inactive: 98.2 µM
16,C#CCn1c(=O)c(C#N)c(O)c2cc3ccccc3nc21,inactive: > 31.6 µM
17,COc1cc2oc3c(c(=O)c2c(O)c1/C=C/C(C)C)C(C=C(C)C)Oc1cc(O)ccc1-3 (stereo not drawn),inactive: 16 µM
18,COC(=O)[C@H](Cc1c[nH]c2ccccc12)NC(=O)c1ccc(CNC(=O)/C(C)=C/c2ccccc2)cc1,inactive: 29.7 µM
19,CCN(CC)C(=O)CCNC(C)Cc1c[nH]c2ccccc12 (stereo not drawn),inactive: > 100 µM
20,Cc1ccc(SC(=O)N2C(=S)N=C(NC3CCCCC3)C23CCCCC3)cc1,inactive: > 100 µM
21,CCOC(=O)CCC(NC(=O)c1ccc(CNc2nc3ccccc3nc2C(=O)OCC)cc1)C(=O)OCC (stereo not drawn),inactive: > 100 µM

row,Structure (SMILES),GI50
1,O=C1Nc2ccccc2N/C1=C\C(=O)C(F)F,inactive: > 100 µM
2,CCCCCCCCCCCCCCCCNc1cccc2ccccc12,inactive: > 100 µM
3,CC(C)C(=O)/C=C/c1ccc(Br)cc1,inactive: 20.8 µM
4,CCOC(=O)C1C(c2ccc(O)c(OC)c2)c2c(n[nH]c2O)CC1(C)O (stereo not drawn),inactive: > 100 µM
5,CN/N=C(\C)C(CN(C)C)C(c1ccccc1)c1c(O)c2ccccc2oc1=O (stereo not drawn),inactive: > 100 µM
6,COC1(OC)CCc2c(sc3ncnc(Nc4cccc(Br)c4)c23)C1,inactive: 3.78 µM
7,CC1CN=C(Nc2ccc(F)c(Cl)c2)S1 (stereo not drawn),inactive: > 100 µM
8,CCCCC(=O)OC[n+]1ccc2c(C)c3[nH]c4ccccc4c3c(C)c2c1,active: 0.222 µM
9,COc1ccc(/C(Cl)=C(\C=O)c2ccc(Cl)cc2)cc1,inactive: 3.4 µM
10,Cn1c(-c2cccs2)cc(-c2ccccc2)c1-c1cccs1,inactive: > 100 µM
11,Cc1cc(=O)oc2cc(OC(=O)N(C)C)c(Cl)cc12,inactive: > 100 µM
12,O=c1[nH]/c(=C/c2ccc(OCc3ccccc3)cn2)c(=O)[nH]/c1=C/c1ccc([N+](=O)[O-])cc1,inactive: > 100 µM
13,Cc1cc(S(=O)(=O)n2ccnc2Oc2ccccc2)c(SSc2cc(Cl)c(C)cc2S(=O)(=O)n2ccnc2Oc2ccccc2)cc1Cl,inactive: > 100 µM
14,C=CCN1C(=O)/C(=C/c2ccco2)N=C1SC/C=C/C,inactive: 92 µM
15,C=C(C1=CC(=O)C(C)(C)O1)[C@@H]1CC=C([C@@H]2CC[C@H]3[C@@]2(C)CC[C@H]2C(C)(C)C(=O)[C@H](OC(=O)CC(C)(O)CC(=O)O)C[C@]32C)[C@H](O)O1 (stereo partly drawn),inactive: 39.6 µM
16,Clc1ccc(SCCCCCCCCCCSc2ccc(Cl)cc2)cc1,inactive: > 70.1 µM
17,CN(C)CS/C(N)=N\C(O)C(Cl)(Cl)Cl (stereo not drawn),inactive: > 100 µM
18,O=S(=O)(O)c1cc(S(=O)(=O)O)c2c(/N=N/c3cccc4ccccc34)c(O)ccc2c1,inactive: > 100 µM
19,O=C1CC(c2ccccc2)NCN1 (stereo not drawn),inactive: > 100 µM
20,O=c1c(O)c(-c2ccccc2)oc2c(CP(=O)(O)O)cccc12,inactive: > 100 µM
21,O=C(Cc1ccccc1)c1ccc2[nH]c(=O)oc2c1,inactive: 70.6 µM

row,Structure (SMILES),GI50
1,O=C1c2ccccc2CC12Cc1ccc3c(c1C2=O)CCCC3 (stereo not drawn),inactive: > 100 µM
2,Cc1nnc2n1N=C(c1ccccc1)C(c1ccccc1)S2 (stereo not drawn),inactive: 41.5 µM
3,COc1ccc(C(O)C(c2ccc(OCc3ccccc3)cc2)c2ccc(OCc3ccccc3)cc2)cc1 (stereo not drawn),inactive: > 100 µM
4,CCOC(=O)[C@H]1Nc2c(cccc2[N+](=O)[O-])C2c3ccccc3CC21 (stereo partly drawn),inactive: > 100 µM
5,O=C1NC(=S)N/C1=C\c1ccc(Cl)cc1,inactive: > 100 µM
6,CC(=O)C1=CN=C2C(=O)N(c3ccccc3)N(C)C12C (stereo not drawn),inactive: > 100 µM
7,Oc1ccc(-c2c3ccccc3c(-c3ccc(O)cc3)c3ccccc23)cc1,inactive: > 100 µM
8,O=C1/C(=C/c2ccccc2)CN(C(=O)OCc2ccccc2)C/C1=C\c1ccccc1,inactive: > 31.6 µM
9,CCOC(=O)/C(C(=O)Nc1ccc(Cl)cc1)=C(/N)N1CCCC1,inactive: > 100 µM
10,Cc1ccc([N+](=O)[O-])cc1S(=O)(=O)Nc1ccc(C2=NOC(c3ccco3)C2)cc1 (stereo not drawn),inactive: 24.8 µM
11,CCC(Oc1ccc(OC)c2ccccc(=O)c12)C(=O)O (stereo not drawn),inactive: > 100 µM
12,COc1ccc(OC)c([N+](=O)[O-])c1-c1nc2sc(C)c(C)n2c1/C=N/N=C(N)N,inactive: 64.1 µM
13,C=CCC1([C@H](C)[C@@H](OC(C)=O)c2cc(OC)c(OC)c(OC)c2)C[C@@H](OC)CCC1=O (stereo partly drawn),inactive: 21.3 µM
14,CC(C)(C)[Si](C)(C)OCc1cccc(OCCOc2cccc(CO[Si](C)(C)C(C)(C)C)c2[N+](=O)[O-])c1[N+](=O)[O-],inactive: > 100 µM
15,N/N=c1\[nH]c2ccccc2o1,inactive: > 100 µM
16,CC1(C=O)CCC23COC4(CCC5C6(C)CCC(OC7OCC(OC8OC(CO)C(O)C(OC9OC(CO)C(O)C(O)C9O)C8OC8OCC(O)C(O)C8O)C(O)C7OC7OC(CO)C(O)C(O)C7O)C(C)(C)C6CCC5(C)C4(C)CC2O)C3C1 (stereo not drawn),active: 0.979 µM
17,NNC(=S)N/N=C(/C(=O)Nc1ccc(Cl)c(Cl)c1)C(C1OC(=O)c2ccccc21)[N+](=O)[O-] (stereo not drawn),inactive: > 100 µM
18,CCOC(=O)c1oc2ccc(OC)c3c2c1CCC3,inactive: > 100 µM
19,C=CC(C)C1(CCCOCc2ccccc2)C(=S)N2CCC3(CC24CCCC14)OCCO3 (stereo not drawn),inactive: > 100 µM
20,Oc1ccccc1C(Sc1nc2ccccc2s1)Sc1nc2ccccc2s1,inactive: 98.2 µM
21,COC(=O)CCC1CCc2c(OC)ccc(O)c2C1=O (stereo not drawn),inactive: > 100 µM
